Among the data in PubChem BioAssay AID1240 (Sanford-Burnham Center for Chemical Genomics, 2008) are displacement values, retold here.

Hit rate of the full screen: of about 50,000 compounds, about 800 (1.6%) showed an effect of 50% or more. Some of the results follow.

The target of this assay is Bcl-2-like protein 10 (Homo sapiens) (UniProt Q9HD36). The experiment in a line: TR3 peptide-Bcl-B binding displacers, biochemical primary FP assay, phenotype converters (AID 1240).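 Further: 0% = Bcl-B with tracer peptide and DMSO and 100% = tracer peptide lacking Bcl-B.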 To be noted: GST-Bcl-B / FITC-TR3 peptide fluorescence polarization; stronger effect = higher value; compound at 3.75 mg/L. (In fluorescence polarisation assays a small probe gives low polarisation when free and higher when bound to something large.)
Sequence of UniProt Q9HD36 (Q9HD36 whole entry, looked up): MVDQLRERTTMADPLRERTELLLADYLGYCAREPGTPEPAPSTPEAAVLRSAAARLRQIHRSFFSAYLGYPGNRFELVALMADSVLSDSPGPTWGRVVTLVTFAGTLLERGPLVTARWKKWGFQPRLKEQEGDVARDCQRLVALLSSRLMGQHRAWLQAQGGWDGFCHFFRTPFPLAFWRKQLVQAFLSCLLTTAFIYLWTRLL
As to `COc1ccc(C(=O)CC2(O)C(=O)N(C)c3ccccc32)cc1OC` (stereo not drawn), the displacement is -5.4%. Under `COc1ccc(-c2cc(C(F)(F)F)n3nc(C(=O)OC(C)C)c(Cl)c3n2)cc1` stands 2.5%; under `CCCCn1c(=S)[nH]c2ccccc21`, 4.7%. As for `COc1cc2c(cc1C)/C(=N/OC(=O)c1ccc(OC)c(OC)c1)CCC2`, the displacement was -7.1%.

For `Cc1ccc(NC(=O)C(C)Oc2ccccc2)c([N+](=O)[O-])c1` (stereo not drawn), the displacement was -9.1%.

For the compound `CCc1cc(=O)oc2cc(OCC(C)=O)ccc12`, the displacement came out at 10.7%. Under `CCN1CCN(S(=O)(=O)c2ccc(OC)cc2)CC1` stands 2.8%. Under `O=C1NC(=O)N(c2ccc(Cl)cc2)C(=O)/C1=C/c1ccc(O)c(I)c1` stands -9.7%; under `COC(=O)c1ccc(C(=O)Nc2cc(Cl)ccc2Cl)cc1NC(=O)c1cc2cccc(O)c2cc1O`, -0.2%; under `COC(=O)C1=C(C)NC2=C(C(=O)c3ccccc32)C1c1cc2c(cc1Br)OCO2` (stereo not drawn), 13.6%. Under `Nc1nonc1C(=O)N=Nc1c(O)[nH]c2ccccc12` stands -8.4%.

With `CCC(=O)c1ccccc1NN1c2ccccc2C(=O)C1(C)OC` (stereo not drawn), the displacement was -0.9%. On to `COc1ccc(C2=NN(c3ccc(C=O)cc3)C(c3ccc(F)cc3)C2)cc1` (stereo not drawn), for which the displacement came to 10%. In the case of `Cn1c(NC(=O)c2ccco2)cc(=O)n(C)c1=O`, the displacement is -0.8%. `CCOC(=O)C(C(=O)Nc1ccc(C)cc1)C1CCCCC1` (stereo not drawn): the displacement turned out to be 2.5%. As to `Cc1ccc(C(C)C)c(OCC(=O)Nc2ccc(C)cc2[N+](=O)[O-])c1`, the displacement was 1.4%.

In the case of `COC(=O)CNC(=O)C1COc2ccccc2O1` (stereo not drawn), the displacement was 11.4%. Under `CCOc1ccc(NC(=O)CN(c2cccc(Br)c2)S(=O)(=O)c2ccccc2)cc1` stands 2.4%.

As to `O=C(Nc1ccccc1-c1nc2ccccc2[nH]1)c1ccc(Cl)cc1Cl`, the displacement is -11.8%.

As to `O=[N+]([O-])c1ccc(/C=N/C(=S)NNc2ccccc2)o1`, the displacement is -4.7%. For the compound `O=C1NC2NC(=O)N(C3CCCCC3)C2N1` (stereo not drawn), the displacement amounted to 0.6%. Under `O=C(CSc1nc2ccccc2c(=O)[nH]1)c1ccccc1` stands 12%. As for `Cc1cc(Cl)ccc1OCC(=O)NNC(=O)c1ccc2ccccc2c1O`, the displacement is -16.8%.

Take `C=CCOc1ccc(/C=C/C(=O)c2ccc(F)cc2)cc1`: the displacement is -10.8%. Consider `O=C(/C=C/c1ccco1)Nc1ccccc1`, for which the displacement worked out at 12.4%. Under `Cc1c(C)c(C)c(C(=O)Nc2ccc(Cl)c(C(N)=O)c2)c(C)c1C` stands -7.6%; under `O=C1S/C(=C/c2ccccc2)C(=O)N1CNc1ccccc1F`, -2.9%; under `Cc1ccc2nsnc2c1NC(=O)c1ccccc1I`, 15.3%. Under `Cc1ccc(C(=O)N2CCCc3ccccc32)cc1` stands -8%; under `CCOC(=O)c1c(NC(=O)c2ccccc2OCC)sc(C)c1C`, 3.6%; under `CCCCCn1c(/N=C/c2c(O)ccc3oc4c(c23)CCCC4)nc2ccccc21`, 10.4%. Regarding `Cc1ccccc1-n1c(-c2ccccc2)nc2c(cnn2-c2ccccc2)c1=O`, the displacement stood at 4.6%. `Cc1ccc2c(nc3s/c(=C\c4ccc(Cl)cc4Cl)c(=O)n32)c1C`: the displacement was -22.3%.

As for `Clc1cccc(/C=N/Nc2cc(N3CCOCC3)ncn2)c1`, the displacement is -7.7%.

For `O=C(Nc1cc(Cl)cc(Cl)c1)c1ccc(I)cc1`, the displacement was 13.6%. Under `O=S(=O)(c1ccc(Br)c2ccccc12)N1CCOCC1` stands 13.8%. Under `COc1ccc(NC(=O)CSc2nc(C)cc(=O)[nH]2)cc1` stands -2.3%. As to `Cc1ccc(NC(=O)C(=O)NCCCOC(C)C)c(C)c1`, the displacement came to 10.7%. In the case of `O=C(O)CCCN1C(=O)/C(=C/c2cccc(Br)c2)SC1=S`, the displacement is 91.2%. For `Cc1ccc(-c2nc3cc(Cl)ccc3o2)cc1NC(=O)c1ccc(Br)o1` the value was 3.2%. Under `O=C(c1ccc(Cl)c(Cl)c1)N1CCN(c2ccccc2)CC1` stands 1.9%; under `N#C/C(=C\NCC(=O)O)C(=O)NCc1ccccc1`, 3.7%. Under `CCOCCOC(=O)c1ccc(NC(=O)c2cncc(Br)c2)cc1` stands 6.2%. `O=C(Nc1ccc(Cl)c(Cl)c1)c1ccccc1C(F)(F)F`: the displacement is -5.1%. Regarding `O=C(NN1CCOCC1)c1cccs1`, the displacement stood at 3.1%. For `O=C1C(Cl)=C(NCCc2ccccc2)C(=O)N1c1ccccc1` the value was 16.4%; for `COc1cc(OC)c(-c2nc3sc4c(c3c(=O)[nH]2)CCCC4)cc1Br`, -14.1%. Under `O=C(CSc1nc2ccccc2s1)Nc1ccccc1[N+](=O)[O-]` stands -10.7%; under `CC(C)(C(=O)c1ccccc1)/[N+]([O-])=C/c1ccccc1`, -1.5%. For `Cc1cc(=O)[nH]c(N/N=C/c2ccc(Br)cc2)n1` the value was -2.8%; for `O=S(=O)(c1ccccc1)N1CCN(Cc2ccccc2Br)CC1`, -21%. As for `CCOc1ccc2sc(NC(=O)CCCC(=O)OCC(F)(F)C(F)F)nc2c1`, the displacement turned out to be 1%. `CC(=C\c1ccccc1)/C=C1/SC(=S)N(c2cccc(Cl)c2)C1=O`: the displacement was found to be 5.1%. Under `O=C1C2C(c3ccc(Cl)cc3)OC3(C(=O)c4ccccc4C3=O)C2C(=O)N1c1cccc(F)c1` (stereo not drawn) stands -24.3%; under `Cc1cc(C)n(CCOc2nonc2N)n1`, 6.5%. For `O=C(c1cccnc1)N1N=C2CCCCCC2C1(O)C(F)(F)F` (stereo not drawn) the value was -19.7%; for `COc1cc(C(=O)NC(NC(=S)Nc2ccc(Cl)c(Cl)c2)C(Cl)(Cl)Cl)cc(OC)c1OC` (stereo not drawn), 14.8%. For `CC(=O)OCCCNC(=O)/C(=C\c1ccc(Br)cc1)NC(=O)c1ccccc1` the value was 2.7%; for `O=C(NCCc1ccccc1)C1COc2ccccc2O1` (stereo not drawn), 3.8%.

On to `Cc1cc(C)n2nc(-c3cccc(Cl)c3)cc2n1`, for which the displacement stood at 2.7%.

Regarding `Cc1ccccc1CN1CCN(C(=O)C(c2ccccc2)c2ccccc2)CC1`, the displacement was -8.7%.

As to `Cc1cc(C)nc(/N=C(/N)Nc2cccc(C(F)(F)F)c2)n1`, the displacement was -2%. As for `C=CCn1c2ccccc2n2nc(C)c(C(=O)/C=C/c3ccccn3)c12`, the displacement is -4.5%. For `O=C(c1ccc(S(=O)(=O)N2CCCCCC2)cc1)N1CCN(c2ccccc2)CC1` the value was 0.7%; for `O=C1NC(=O)N(c2ccccc2)C(=O)/C1=C\c1ccc(OCc2ccccc2F)cc1`, 12.9%. For `C/C(=C1/SC(=S)NC1=O)c1ccc(C)cc1` the value was 12.6%; for `Cc1ccc(-c2nnc(N)s2)cc1C`, 5.1%; for `Cc1ccc(N(CC(=O)Nc2ccc(Cl)cc2)S(C)(=O)=O)cc1Cl`, 7.8%.

Regarding `O=C(O)c1cc(S(=O)(=O)N(CCO)CCO)ccc1Cl`, the displacement was -7.4%.

In the case of `O=C(Nc1ccc(Cl)c(C(F)(F)F)c1)c1ccccc1Br`, the displacement worked out at 1.1%. In the case of `CCN(CC)c1ccc(/C=N\N2CCN(Cc3ccc(C)cc3)CC2)c(O)c1`, the displacement came to 1.8%.

Consider `O=C1N=C(N2CCCCC2)S/C1=C\c1ccc(F)cc1`, for which the displacement was -19.3%. Under `O=C(CSc1ccccn1)Nc1ccc(/C=C/c2ccccc2)cc1` stands -1.1%. Under `Cc1onc(-c2ccccc2)c1C(=O)N(C)C` stands -0.2%. As to `COC(=O)c1ccc(NC(=O)Cc2ccccc2)cc1`, the displacement was -15%. On to `O=c1c(C(c2ccccc2)c2ccccc2)c(O)nc2n1CCCS2`, for which the displacement is -2.7%.

With `Cc1ccc(-c2nc3sc4c(c3c(=O)[nH]2)CCCC4)cc1`, the displacement is -2.6%. For `O=C(NN=C1CCCCCC1)c1ccc(Cl)c(Cl)c1` the value was 10.3%; for `O=S(=O)(c1ccc(Cl)cc1)N1CCNCC1`, -13.9%. With `CSCCC(C(=O)O)N1C(=O)NC2NC(=O)NC21` (stereo not drawn), the displacement worked out at 3.3%.

Take `CN(C)c1ccc(/C=C2/C(=O)NN(c3ccc(F)c(Cl)c3)C2=O)cc1Br`: the displacement is 22.9%. As for `O=C(O)c1ccc(NC(=O)c2cc3cc(Br)ccc3oc2=O)cc1`, the displacement amounted to 0.3%. Under `Cc1cc(C)c(NC(=O)c2ccc([N+](=O)[O-])c(C)c2)c(C)c1` stands 0.3%; under `Cc1ccc(COc2ccc(C=C3C(=O)NC(=O)NC3=O)cc2Br)cc1`, 8%; under `O=C(O)c1ccc2c(c1)C(=O)N(c1ccc(C(=O)Nc3cccc(O)c3)cc1)C2=O`, -4.9%. Consider `O=C(NCc1ccc2c(c1)OCO2)c1ccc(C#CC2(O)CCCCC2)cc1`, for which the displacement was -1%. For `COc1ccc(Br)cc1CNCc1ccc(OC)c(OC)c1` the value was 3.3%; for `COc1ccc(NC(=O)CN(c2cccc(C(F)(F)F)c2)S(C)(=O)=O)c(OC)c1`, 7.1%; for `O=C(CN1C(=O)c2ccc([N+](=O)[O-])cc2C1=O)NN1C(=O)c2ccccc2C1=O`, -3.8%. For `c1ccc(-c2ccc(-n3cnc4ccccc43)cc2)cc1`, the displacement was 1.8%.

As to `CC(C)(C)c1ccc(C(=O)Nc2cc(C(N)=O)cc(C(N)=O)c2)cc1`, the displacement is -3.4%.

With `CC(C)Cn1c(=O)c(C(=O)Nc2ncccn2)c(O)c2ccccc21`, the displacement is 10.4%.

Regarding `CCN(CC)c1ccc(NC(=O)c2ccc3ccccc3c2)cc1`, the displacement came out at 12.9%. Under `CCOC(=O)C1=C(C)N(c2ccc(C)cc2)C(=O)/C1=C\c1cccc(OC)c1O` stands 12.9%; under `O=C(CN1C2=NCCN2c2ccccc21)c1ccc(Br)s1`, 8.6%. On to `Cc1ccc(S(=O)(=O)Nc2cc(C(C)(C)C)c(O)c(C(C)(C)C)c2)cc1`, for which the displacement stood at 1.2%. With `CCOC(=O)c1c(C)oc2ccc(OC(=O)c3ccccc3C)cc12`, the displacement turned out to be 8.3%. Take `Cc1ccc(/C=N/NC(=O)C2(C)CC2(Br)Br)cc1` (stereo not drawn): the displacement was found to be 2%. For `COCCCNC(=O)C(=O)NCCc1ccc(OC)c(OC)c1` the value was 11.3%; for `Cc1ccc(C(=O)O)cc1N1C(=O)c2ccc(Oc3ccc([N+](=O)[O-])cc3)cc2C1=O`, 0.7%; for `O=C(/C=C/c1ccccc1)NC(=S)Nc1ccc(NC(=O)c2cccc(Cl)c2)cc1`, 12.6%.

On to `C=CCN1C(=O)/C(=C\c2ccccc2C)C(=O)NC1=S`, for which the displacement is -4%. For `C=CCc1ccccc1OCCOc1ccc(/C=C2/SC(=S)N(C)C2=O)cc1OC` the value was 12.9%; for `Cc1ccc(/C=N/Nc2ccccn2)cc1`, -0.6%. Under `COc1ccc(-c2nnc(NC(=O)c3ccccc3C)s2)cc1OC` stands 44.2%; under `N#CSC(CS(=O)(=O)c1ccccc1)c1ccccc1` (stereo not drawn), 0.9%; under `CCN(CC)c1ccc(/C=N/Nc2cc(N3CCOCC3)nc(N3CCOCC3)n2)cc1`, -3.4%. For `O=C(O/N=C(/c1ccccc1)c1ccncc1)c1ccc(Cl)cc1Cl` the value was -4.1%; for `Cc1ccc(NC(=O)C(=O)NCCN2CCOCC2)cc1`, 8.9%; for `C(=N\Nc1nn[nH]n1)/c1ccc2c(c1)OCO2`, 10.2%.

With `Cc1nc(Nc2ccccc2)c(C(F)(F)F)c(C(F)(F)C(F)(F)F)n1`, the displacement stood at 13.1%. For `C=CCc1cc(/C=C2/C(=O)NC(=O)N(c3cccc(C)c3)C2=O)cc(OC)c1O` the value was 1.1%; for `Cc1c(Cl)cccc1N=C1NC(=O)/C(=C/c2ccc(-c3ccccc3C(=O)O)o2)S1`, -124%.
